Measurements as given in PMC4374188.
Results are given in words; binding and its absence hold for the method and conditions named. In cells and extracts the contact can be indirect. Some entries that bind do so weakly or less than the wild type.

Amino acid sequences for entries named in this document (tags omitted).
UniProt Q15910: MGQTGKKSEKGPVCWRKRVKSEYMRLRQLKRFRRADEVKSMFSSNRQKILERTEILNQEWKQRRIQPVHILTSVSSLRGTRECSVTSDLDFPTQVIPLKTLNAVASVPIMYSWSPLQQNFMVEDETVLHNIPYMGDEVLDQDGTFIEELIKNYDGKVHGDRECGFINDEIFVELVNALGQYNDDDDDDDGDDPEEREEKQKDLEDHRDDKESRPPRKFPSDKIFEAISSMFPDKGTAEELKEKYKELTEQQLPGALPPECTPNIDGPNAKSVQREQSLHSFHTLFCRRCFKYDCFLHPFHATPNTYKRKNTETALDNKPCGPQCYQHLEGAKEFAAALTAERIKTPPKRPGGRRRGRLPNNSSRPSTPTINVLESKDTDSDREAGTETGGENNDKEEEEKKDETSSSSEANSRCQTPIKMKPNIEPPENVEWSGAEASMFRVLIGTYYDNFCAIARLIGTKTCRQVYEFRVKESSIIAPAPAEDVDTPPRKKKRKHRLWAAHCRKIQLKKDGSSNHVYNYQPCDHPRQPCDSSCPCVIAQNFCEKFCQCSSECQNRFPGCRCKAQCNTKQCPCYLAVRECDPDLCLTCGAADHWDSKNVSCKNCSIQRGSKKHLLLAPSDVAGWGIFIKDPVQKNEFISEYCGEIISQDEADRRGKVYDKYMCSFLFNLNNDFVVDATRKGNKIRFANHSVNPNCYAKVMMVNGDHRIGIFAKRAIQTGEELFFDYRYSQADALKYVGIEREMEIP
UniProt Q06945: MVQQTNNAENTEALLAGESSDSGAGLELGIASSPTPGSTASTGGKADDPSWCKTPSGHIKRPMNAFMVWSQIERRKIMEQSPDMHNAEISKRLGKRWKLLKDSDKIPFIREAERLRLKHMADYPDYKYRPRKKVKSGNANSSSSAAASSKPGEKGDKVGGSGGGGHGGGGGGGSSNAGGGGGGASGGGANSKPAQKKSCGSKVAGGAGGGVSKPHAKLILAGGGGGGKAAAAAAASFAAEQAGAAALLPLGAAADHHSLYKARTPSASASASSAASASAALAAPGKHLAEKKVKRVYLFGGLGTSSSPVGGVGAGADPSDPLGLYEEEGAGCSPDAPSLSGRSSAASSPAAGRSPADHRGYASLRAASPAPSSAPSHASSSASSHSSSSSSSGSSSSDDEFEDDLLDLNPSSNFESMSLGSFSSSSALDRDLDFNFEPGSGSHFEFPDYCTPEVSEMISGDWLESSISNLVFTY
UniProt O15379: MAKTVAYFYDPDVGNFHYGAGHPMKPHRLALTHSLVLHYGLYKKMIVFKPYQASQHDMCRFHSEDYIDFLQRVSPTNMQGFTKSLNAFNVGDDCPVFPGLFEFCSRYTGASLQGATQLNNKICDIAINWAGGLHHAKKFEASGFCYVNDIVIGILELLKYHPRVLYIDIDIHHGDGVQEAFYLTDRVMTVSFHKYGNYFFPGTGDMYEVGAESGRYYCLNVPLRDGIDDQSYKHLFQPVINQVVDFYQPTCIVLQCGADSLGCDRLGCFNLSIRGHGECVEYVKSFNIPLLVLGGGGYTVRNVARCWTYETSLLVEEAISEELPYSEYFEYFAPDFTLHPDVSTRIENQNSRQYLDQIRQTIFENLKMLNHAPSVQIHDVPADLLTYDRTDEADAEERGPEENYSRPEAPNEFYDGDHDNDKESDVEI
UniProt Q15022: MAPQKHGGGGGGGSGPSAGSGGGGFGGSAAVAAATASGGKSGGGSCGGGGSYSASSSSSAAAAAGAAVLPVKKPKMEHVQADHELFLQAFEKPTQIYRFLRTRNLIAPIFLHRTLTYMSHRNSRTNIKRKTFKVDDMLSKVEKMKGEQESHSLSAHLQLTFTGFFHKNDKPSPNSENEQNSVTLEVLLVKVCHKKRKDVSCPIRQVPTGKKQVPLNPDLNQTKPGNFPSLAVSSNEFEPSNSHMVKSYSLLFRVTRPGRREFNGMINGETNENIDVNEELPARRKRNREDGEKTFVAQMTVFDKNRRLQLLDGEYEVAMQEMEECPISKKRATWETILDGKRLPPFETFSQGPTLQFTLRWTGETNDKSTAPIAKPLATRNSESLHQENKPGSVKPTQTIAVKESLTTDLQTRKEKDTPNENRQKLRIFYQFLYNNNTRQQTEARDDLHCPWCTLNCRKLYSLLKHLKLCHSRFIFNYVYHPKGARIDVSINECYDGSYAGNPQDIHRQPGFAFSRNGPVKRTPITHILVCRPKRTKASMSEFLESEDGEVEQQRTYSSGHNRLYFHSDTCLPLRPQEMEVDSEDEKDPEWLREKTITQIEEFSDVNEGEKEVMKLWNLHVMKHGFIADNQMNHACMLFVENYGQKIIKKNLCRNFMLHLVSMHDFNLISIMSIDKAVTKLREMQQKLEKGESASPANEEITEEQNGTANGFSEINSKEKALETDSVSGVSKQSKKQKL

Tests used:
[1] = biological target: EZH2 (enhancer of zeste homolog 2) (human (endogenous in TE8 and FLO1)) (UniProt Q15910); assay: co-IP; TE8 cell lysate (500 ug total protein) with agarose-immobilised anti-SOX4, anti-EZH2, anti-HDAC3 or isotype control antibody (6 ug), overnight at 4 C; lysis buffer 150 mM NaCl, 50 mM Tris pH 8, 1% Triton X-100, 1% NP-40; immunoblot
[2] = biological target: SOX4 (human (endogenous in TE8 and FLO1)) (UniProt Q06945); assay: as above
[3] = biological target: EZH2 (enhancer of zeste homolog 2) (human (endogenous in TE8 and FLO1)) (UniProt Q15910); assay: co-IP; FLO1 cell lysate (500 ug total protein) with agarose-immobilised anti-SOX4, anti-EZH2, anti-HDAC3 or isotype control antibody (6 ug), overnight at 4 C; lysis buffer 150 mM NaCl, 50 mM Tris pH 8, 1% Triton X-100, 1% NP-40; immunoblot
[4] = biological target: SOX4 (human (endogenous in TE8 and FLO1)) (UniProt Q06945); assay: as above
[5] = biological target: HDAC3 (human (endogenous in TE8 and FLO1)) (UniProt O15379); assay: co-IP; TE8 cell lysate (500 ug total protein) with agarose-immobilised anti-SOX4, anti-EZH2, anti-HDAC3 or isotype control antibody (6 ug), overnight at 4 C; lysis buffer 150 mM NaCl, 50 mM Tris pH 8, 1% Triton X-100, 1% NP-40; immunoblot
[6] = biological target: HDAC3 (human (endogenous in TE8 and FLO1)) (UniProt O15379); assay: co-IP; FLO1 cell lysate (500 ug total protein) with agarose-immobilised anti-SOX4, anti-EZH2, anti-HDAC3 or isotype control antibody (6 ug), overnight at 4 C; lysis buffer 150 mM NaCl, 50 mM Tris pH 8, 1% Triton X-100, 1% NP-40; immunoblot

Row | binding [1] | binding [2] | binding [3] | binding [4] | binding [5] | binding [6] | Substance
1 | binds | binds | binds | binds |  |  | HDAC3 (from UniProt O15379 1-428) (enzyme)
2 |  |  |  |  | no binding | no binding | SUZ12 (from UniProt Q15022 1-739)
3 | binds |  | binds |  | binds |  | SOX4 (from UniProt Q06945 1-474)
